This passage reports Kd, koff and kon results from patent US20200087380A1 (Chugai, published 2020).

The target in the assay is T1, hIL6R (human, UniProt P08887 20-357, limits assumed).
T1 construct: Printed as hIL6R
T1 sequence (looked up): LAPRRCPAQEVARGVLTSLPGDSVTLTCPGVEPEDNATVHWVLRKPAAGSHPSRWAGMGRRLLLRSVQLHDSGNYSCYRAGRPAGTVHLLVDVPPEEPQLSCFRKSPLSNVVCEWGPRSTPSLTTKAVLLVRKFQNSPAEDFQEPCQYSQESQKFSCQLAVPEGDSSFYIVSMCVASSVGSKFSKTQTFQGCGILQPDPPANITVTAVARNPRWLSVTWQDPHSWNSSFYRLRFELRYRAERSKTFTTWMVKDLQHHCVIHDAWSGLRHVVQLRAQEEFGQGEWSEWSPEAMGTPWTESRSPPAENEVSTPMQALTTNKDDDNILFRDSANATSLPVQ
Kind of assay: SPR (Biacore T100), antibody captured on Protein A/G chip, antigen as analyte, 25 C, 1:1 Langmuir fit.

Where a chain is given by its changes, count along the chain named. Names and notes keep the numbering of the source.

B1: anti-IL6R antibody with H chain constant region TH13 (K147E, Q175E) and L chain constant region TL16 (T180K, S131K, Q160K) (antibody, human IgG1, kappa)
heavy: QVQLQESGPGLVRPSQTLSLTCTVSGYSITSDHAWSWVRQPPGRGLEWIGYISYSGITTYNPSLKSRVTMLRDTSKNQFSLRLSSVTAADTAVYYCARSLARTTAMDYWGQGSLVTVSS[human IgG1 constant region not shown]
light: DIQMTQSPSSLSASVGDRVTITCRASQDISSYLNWYQQKPGKAPKLLIYYTSRLHSGVPSRFSGSGSGTDFTFTISSLQPEDIATYYCQQGNTLPYTFGQGTKVEIKRTVAAPSVFIFPPSDEQLKSGTAKVVCLLNNFYPREAKVQWKVDNALQSGNSKESVTEQDSKDSTYSLSSTLKLSKADYEKHKVYACEVTHQGLSSPVTKSFNRGEC
notes: IgG1/kappa; also called TH13/TL16
The molecule B1 returned a Kd of 2.9 nM, a koff of 0.00044 s⁻¹ and a kon of 160000 M⁻¹ s⁻¹.

B2: anti-IL6R antibody with H chain constant region TH15 (K147E, Q175E, K213E) and L chain constant region TL19 (T180K, S131K, Q160K, E123K) (antibody, human IgG1, kappa)
heavy: QVQLQESGPGLVRPSQTLSLTCTVSGYSITSDHAWSWVRQPPGRGLEWIGYISYSGITTYNPSLKSRVTMLRDTSKNQFSLRLSSVTAADTAVYYCARSLARTTAMDYWGQGSLVTVSSASTKGPSVFPLAPSSKSTSGGTAALGCLVEDYFPEPVTVSWNSGALTSGVHTFPAVLESSGLYSLSSVVTVPSSSLGTQTYICNVNHKPSNTKVDEKV[human IgG1 Fc not shown]
light: B1 light with E123K
notes: IgG1/kappa; also called TH15/TL19
Molecule B2 returned a Kd of 2.3 nM, a koff of 0.00048 s⁻¹ and a kon of 210000 M⁻¹ s⁻¹.

B3: anti-IL6R antibody with H chain constant region G1d and L chain constant region k0 (MH0-G1d / ML0-k0) (antibody, human IgG1, kappa)
heavy: B1 heavy
light: B1 light with K131S, K160Q, K180T
notes: IgG1/kappa; also called G1d/k0; native G1d/k0
The molecule B3 returned a Kd of 2.8 nM, a koff of 0.00041 s⁻¹ and a kon of 150000 M⁻¹ s⁻¹.

B4: anti-IL6R antibody with H chain constant region TH2 (Q175K) and L chain constant region TL17 (T180E, S131E, Q160E) (antibody, human IgG1, kappa)
heavy: B1 heavy
light: B1 light with K131E, K160E, K180E
notes: IgG1/kappa; also called TH2/TL17
Molecule B4 displayed a Kd of 3.8 nM, a koff of 0.0005 s⁻¹ and a kon of 130000 M⁻¹ s⁻¹.

The term Kd denotes the constant that tells how readily two partners part at equilibrium. Read a low Kd as a tighter complex. Usually koff stands for the rate constant with which the complex falls apart. Higher therefore signals a short-lived complex. A word on the kon: it is the second-order rate constant of association.
